# Test results taken from publication PMC4336329 (PLoS ONE, 2015).
# The campaign covered roughly 310,000 compounds. About 14,000 (4.5%) showed an effect of 50% or more. The effect is printed as a negative number. Some of the results follow.
# Molecular target: human ether-à-go-go-related gene (hERG) potassium channel (human, UniProt Q12809)
# Test: primary screen, population patch clamp on CHO cells stably expressing hERG
# 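Further: peak tail current of the secondary pulse compared with the same well before compound.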
# Sequence of human ether-à-go-go-related gene (hERG) potassium channel (Q12809 whole entry, looked up): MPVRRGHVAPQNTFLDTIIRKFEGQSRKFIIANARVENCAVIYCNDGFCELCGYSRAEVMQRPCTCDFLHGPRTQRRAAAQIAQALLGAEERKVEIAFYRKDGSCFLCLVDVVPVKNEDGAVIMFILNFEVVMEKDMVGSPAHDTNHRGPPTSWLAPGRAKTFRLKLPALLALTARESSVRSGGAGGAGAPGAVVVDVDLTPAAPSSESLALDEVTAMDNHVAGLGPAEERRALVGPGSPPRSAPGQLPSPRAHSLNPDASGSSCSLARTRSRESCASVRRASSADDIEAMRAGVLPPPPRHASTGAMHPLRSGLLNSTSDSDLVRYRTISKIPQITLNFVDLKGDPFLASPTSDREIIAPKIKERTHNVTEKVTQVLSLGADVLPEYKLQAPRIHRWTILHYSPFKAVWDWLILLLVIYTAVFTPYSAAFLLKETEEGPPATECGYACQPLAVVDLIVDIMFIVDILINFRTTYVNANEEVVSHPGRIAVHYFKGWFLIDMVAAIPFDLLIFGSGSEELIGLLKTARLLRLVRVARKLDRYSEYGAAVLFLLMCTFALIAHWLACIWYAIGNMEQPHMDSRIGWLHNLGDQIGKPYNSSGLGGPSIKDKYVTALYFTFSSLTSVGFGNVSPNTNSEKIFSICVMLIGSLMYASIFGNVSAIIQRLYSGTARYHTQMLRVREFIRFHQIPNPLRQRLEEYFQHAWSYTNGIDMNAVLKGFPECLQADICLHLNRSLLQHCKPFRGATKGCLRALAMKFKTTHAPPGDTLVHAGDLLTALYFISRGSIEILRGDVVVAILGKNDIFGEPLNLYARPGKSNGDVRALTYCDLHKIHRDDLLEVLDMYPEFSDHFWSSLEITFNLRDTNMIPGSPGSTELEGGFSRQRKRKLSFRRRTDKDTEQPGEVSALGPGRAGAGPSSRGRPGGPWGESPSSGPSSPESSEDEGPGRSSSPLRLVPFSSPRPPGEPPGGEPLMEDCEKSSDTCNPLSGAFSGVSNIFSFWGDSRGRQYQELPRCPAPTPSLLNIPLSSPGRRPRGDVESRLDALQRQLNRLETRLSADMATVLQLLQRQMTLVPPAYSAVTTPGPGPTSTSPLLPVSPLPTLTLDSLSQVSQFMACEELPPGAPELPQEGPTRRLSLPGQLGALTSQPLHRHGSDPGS
row,Structure (SMILES),"hERG current change (%, negative = inhibition) at 10uM [%]"
1,Cc1ccc2c(c1)NC(=O)[C@@]1(C)[C@@H](c3ccccc3)[C@H]3COc4ccccc4[C@@H]3N1C2=O,12.3
2,O=C1C2CCCN2C(c2cccnc2)N1c1ccc(Cl)cc1 (centres unmarked),-16.3
3,C[C@@H]1CCC2[C@](C)(CO)[C@@H](O)CC[C@]2(C)[C@@]12C[C@](CO)(CC(=O)[O-])CO2.O (some centres unmarked),15.7
4,O=C([O-])c1ccc(N(Cc2ccccc2)S(=O)(=O)c2ccccc2)cc1.[Na+],4.28
5,NC1=C(O)C(=O)C(c2ccccc2)O1 (centres unmarked),21.5
6,O=C(Nc1nccs1)C1CCCCN1S(=O)(=O)c1ccccc1 (centres unmarked),4.8
7,COc1ccc(-c2nc(C(=O)NCCCN3CCOCC3)cc3c2[nH]c2ccccc23)cc1OC,-72.2
8,CC(=O)N1CCc2cc(S(=O)(=O)CCC(=O)N3CCN(C(=O)c4ccco4)CC3)ccc21,2.25
9,CCOC(=O)c1cnc2c(c(C)nn2CC)c1NC1CC1,12.5
10,O=C(Nc1nnc(-c2ccco2)s1)C1CCCCC1,-5.43
11,CCOc1ccc(NC(=O)COc2cccc3c2CCN(Cc2cccnc2)C3=O)cc1,-44.3
12,CCCCC1CC(/C(C)=N/NC(N)=O)OC1=O (centres unmarked),-6.35
13,CC(C)C(NC(=O)c1ccc(C(C)(C)C)cc1)C(=O)Nc1cccc(S(N)(=O)=O)c1 (centres unmarked),3.85
14,Cc1[nH]c2ccc3ncccc3c2c1C,12.7
15,C=CCNC(=S)Nc1cccc2ccccc12,1.64
16,Cc1ccc(NC(=O)c2ccc(-n3cccn3)nc2)cc1,2.12
17,O=C(NC1CCCCCC1)c1cc(=O)[nH]c2ccc(S(=O)(=O)N3CCOCC3)cc12,1.12
18,CCn1c2c(c3ccc(OC)cc31)CCCC2=O,-1.39
19,O=C(NCCCO)C(=O)NCC(c1ccc2c(c1)OCO2)N1CCN(c2ccc(F)cc2)CC1 (centres unmarked),-41.4
20,CC(N)C(=O)OC(C)(C)Cc1ccc(Cl)cc1.Cl (centres unmarked),-4.87
21,CCCC(O)(CCC)C(=O)NNc1ccc(C)cc1,5.21
22,CCOc1ccc(NC(=O)Nc2cc(OCC(F)(F)F)cc(OCC(F)(F)F)c2)cc1,16.5

row,Structure (SMILES),"hERG current change (%, negative = inhibition) at 10uM [%]"
1,COc1ccccc1/C=C1\SC(=S)N(CCC(=O)NCCCN2CCOCC2)C1=O,-16.2
2,O=C1CSC(c2ccccn2)N1c1ccc(C(F)(F)F)cc1 (centres unmarked),-45.1
3,Cc1cccc(NC(=O)COC(=O)CCc2c[nH]c3ccccc23)c1,4.11
4,CCN(C(=N)N=C(N)N)c1ccccc1,9.81
5,CC(C(N)=O)N1CC(c2ccccc2)CC1=O (centres unmarked),-4.86
6,CCN(CC(=O)Nc1ccc(NC(C)=O)cc1)C(=O)C1CC(=O)N(Cc2ccc(C)cc2)C1 (centres unmarked),0.107
7,CCC(C)n1c(SCC(=O)/C(C#N)=C(\C)N)nc2ccccc2c1=O (centres unmarked),-15.3
8,O=C(N/N=C/c1ccco1)c1cc(C2CC2)nc2ccccc12,4.56
9,COc1cc(/C=C2/C(=O)ON=C2C)ccc1OCc1cccc(F)c1,28.5
10,Cl.c1csc(CNCCN2CCOCC2)c1,13.1
11,Cc1ccc(C)n1-n1c(C)nc2scc(-c3ccccc3)c2c1=O,-14
12,Cc1ccc(NC(=O)C2C3C=CC(O3)C2C(=O)O)cc1C (centres unmarked),20.4
13,O=C1CN(c2ccc(Br)cc2)C(=O)N1CC(=O)N1CCCc2ccccc21,-7.58
14,COc1ccccc1-n1cc(-c2ccc(Br)cc2)[nH]c1=S,15.6
15,C/C(CC(=O)Nc1ccc(C)c(Cl)c1)=N\NC(=O)Cc1cccs1,-4.58
16,COc1cc(OC)cc(C(=O)Nc2cccc3c2CCCC3)c1,19.3
17,Cc1nc(C)c(NC(=O)N2CCc3ccccc32)cc1NC(=O)N1CCc2ccccc21,7.5
18,COCC(C)n1c(C)cc(C(=O)CSc2nnc(N)s2)c1C (centres unmarked),-6.96
19,Cc1cccc(NC(=O)CSCC(=O)Nc2cc(S(=O)(=O)N3CCOCC3)ccc2OC(C)C)c1,-87.2
20,Cc1cc(N(C)C)ccc1[N+](=O)[O-],-9.31
21,CCOC(=O)c1ccc(NC(=O)CSc2nc(NC(=O)c3ccccc3)c3c(C)c(C)oc3n2)cc1,10.8
22,CS(=O)(=O)Nc1ccccc1C(=O)NCc1ccco1,-2.03
